Test results from ChEMBL document CHEMBL4888484, “Replenishing the malaria drug discovery pipeline: Screening and hit evaluation of the MMV Hit Generation Library 1 (HGL1) against asexual blood stage Plasmodium falciparum ,using a nano luciferase reporter read-out” (2022).
The campaign covered roughly 150,000 compounds. About 540 (0.36%) showed an effect of 50% or more. Some of the results follow.

Test system: Plasmodium falciparum
Assay: Primary screen in NF54 nanoGlo assay, in single point, at 2uM, 72h; a lower Z score goes with more inhibition
Assay type: functional, Erythrocyte
Settings: timepoint 72 hour

Going from COc1c(F)cccc1CN1CC[C@]2(OC)CC[C@H](Oc3ccccn3)C[C@H]12 to N#Cc1cc(N2CCCN(Cc3ccccc3)CCOCC2)ncn1, the “% Inhibition” value falls from 6% to -10%.

Going from CC(=Cc1cn(C(C)(C)C)nn1)c1nc(C)c(C#N)c(=O)[nH]1 to CC(C)c1ccc(C#N)c(NCCc2noc(CO)n2)n1, the “% Inhibition” value falls from 39% to 15%.

Going from C[C@@H](CNC(=O)c1ccnc(N(C)C)c1)Cn1ccnc1 to C[C@@H](C(=O)NCC(F)(F)F)N(C)Cc1nnc2ccccn12, the “% Inhibition” value rises from -4% to 3%.

Going from CC(C)(NC(=O)c1cnc2cccnn12)[C@H](O)C(F)(F)F to Cn1cc(C2C[S+]([O-])CCN2C(=O)c2ccc(CCC(F)(F)F)cc2)cn1 (stereo unspecified), the “% Inhibition” value rises from -15% to -12%.

Compared with O=C1c2ccccc2N[C@]2(C(=O)Nc3ccccc32)N1Cc1ccccc1, CCn1cc(S(=O)(=O)N(Cc2ccccc2)c2ccccc2)cn1 is lower in “% Inhibition” value: -18% for the first, -19% for the second.

First: CC1=NO[C@@H](CNc2nc(C)ns2)C1
Second: Cn1cccc1CNc1nnc([C@@H]2CCCO2)o1
The “% Inhibition” value of the first is lower: -12% for the first, -5% for the second.

Compared with COCC[C@@H](COC)NC(=O)c1c[nH]nc1-c1cnn(C)c1, CN(CCOc1ccccc1Cl)Cc1cn(C)nn1 is lower in “% Inhibition” value: 2% for the first, 0% for the second.

Compared with O=C(C[C@@H]1CCN2C[C@@H]1/C=C\COc1ccccc1CN(Cc1ccccc1OC(F)(F)F)CC2=O)N1CC[C@@H](O)C1, COc1ccccc1N1CCN(C(=O)[C@H]2CC(=O)N(C3CC3)C2)CC1 is lower in “% Inhibition” value: 19% for the first, 0% for the second.

Compared with CCC(CC)c1nc(CN2CCCC2=O)no1, Cc1noc(CCCC(=O)N2CCN(C3CCCC3O)CC2)n1 (stereo unspecified) is lower in “% Inhibition” value: 7% for the first, -26% for the second.

Compared with COc1cc2ccccc2cc1C(=O)Nc1ccc2oc(-c3cc(Br)ccc3Cl)nc2c1, Cc1cc(-c2nc3ccccc3s2)ccc1NS(=O)(=O)c1ccc2c(c1)OCCO2 is higher in “% Inhibition” value: -2% for the first, 0% for the second.

Going from Cc1noc(C)c1CCc1nc(-c2ccccc2)nn1C1CCN(C)CC1 to CCN1CCN(CCCNc2nc(-c3ccccc3F)no2)CC1, the “% Inhibition” value falls from -6% to -13%.

Compared with CCCN(Cc1c(-c2ccccc2)nn(C)c1N(C)C)C(=O)c1cccs1, CC(=O)N(C(C)=O)c1c(-c2ccccc2)nnn1-c1ccccc1 is higher in “% Inhibition” value: -4% for the first, 35% for the second.

Going from CCN(CC)CCNC(=O)CCCC(=O)NCCc1ccc(Cl)cc1 to Cc1nc(NC(=O)CCNC(=O)C2CC2C)sc1-c1ccccn1 (stereo unspecified), the “% Inhibition” value falls from 3% to -5%.

First: Cn1cc([C@H]2C[C@@H]2C(=O)NS(=O)(=O)C2CC3CCC2CC3)cn1 (stereo partly specified)
Second: O=C(NC1CCCCC1)c1nc[nH]c1C(=O)NCC1CC1
The “% Inhibition” value of the first is higher: -1% for the first, -8% for the second.

Going from CC(C)(C)C(NCC1CC1c1ccccc1)C(N)=O (stereo unspecified) to CCOCC(=O)NC[C@H]1CCCN1c1ccccc1, the “% Inhibition” value falls from 9% to -10%.

Going from C[C@]1(c2nc(C(F)(F)c3ccc(F)cc3)no2)CCNC(=O)C1 to Cc1nc(C(F)(F)F)ccc1S(N)(=O)=O, the “% Inhibition” value rises from -7% to -5%.

First: CCOc1cc(CNC(=O)c2sc(Nc3ccccc3CC)nc2C)ccc1OC
Second: CO[C@@H](CNC(=O)Nc1ccccc1C(F)(F)F)c1ccco1
The “% Inhibition” value of the first is lower: 2% for the first, 12% for the second.

Going from CC(C)(CCOCc1ccccc1)CNCC(C)(C)S(C)(=O)=O to CS(=O)(=O)N1CCC(C(=O)Nc2cnccc2-c2ccccc2)CC1, the “% Inhibition” value rises from -20% to -16%.

First: COc1cccc(C(=O)NCC(=O)N2CCn3c(nc(C)c3C)C2)c1
Second: Cc1cc(C)nc(O[C@H]2CCCN(C(=O)c3cccc(C#N)c3)C2)n1
The “% Inhibition” value of the first is lower: -5% for the first, 2% for the second.

First: Cc1ccc(CN2CC[C@H](c3nnc(-c4ccco4)o3)C2)o1
Second: Cc1nocc1C(=O)NC1CC[C@H]2CN(Cc3ccccc3)C[C@H]2C1 (stereo partly specified)
The “% Inhibition” value of the first is higher: 17% for the first, -12% for the second.

Compared with C/C(C(=O)Nc1ccc(C(=O)c2ccccc2)cc1N)=C(/C)c1nc2ccccc2[nH]1, ONc1ccccc1-c1nc(-c2ccc(Cl)cc2)no1 is lower in “% Inhibition” value: 7% for the first, -2% for the second.

First: O=S(=O)(c1c[nH]c2ncncc12)N(CC1CCC1)c1ccccc1
Second: C[C@H](OC(=O)COc1ccccc1)C(=O)Nc1ncnc2[nH]cnc12
The “% Inhibition” value of the first is higher: -1% for the first, -13% for the second.

Compared with Cc1ccc(C(=O)C2CCN(C(=O)[C@H](C)NS(=O)(=O)c3c(C)noc3C)CC2)c(C)c1, Cc1ccc(C(=O)N2CC[C@H](C(=O)Nc3cn[nH]c3)C2)c(Cl)c1 is lower in “% Inhibition” value: 1% for the first, 0% for the second.

Compared with CCn1ccc2c([C@H]3CC(=O)NCc4nc5ccc(C)cn5c43)cccc21, Cc1ccc(NC(=O)[C@H]2CC(=O)N(c3n[nH]c4cccc(F)c34)C2)cc1C is higher in “% Inhibition” value: -2% for the first, 0% for the second.

Going from O=C(Nc1cc(F)ccc1F)N1CCN(Cc2nc3cccnc3n2-c2cccc(F)c2)CC1 to COC[C@H]1CN(C(C)=O)CC12CCN(Cc1ccc(Cl)cc1F)CC2, the “% Inhibition” value falls from 3% to -9%.

Going from C[C@@H](O)[C@@H](CO)NC(=O)c1ccnc(C2CC2)n1 to CCc1nnc(CNC(=O)NC[C@H]2CCCC[C@H]2C(F)(F)F)o1, the “% Inhibition” value falls from 14% to -5%.

For Cn1cc(C(=O)N2CCOC[C@@H]2Cc2c[nH]c3ccccc23)c(C(C)(C)C)n1, the “% Inhibition” value was -12%.

Compared with COc1c(F)cccc1CN1CC[C@]2(OC)CC[C@H](Oc3ccccn3)C[C@H]12, N#Cc1cc(N2CCCN(Cc3ccccc3)CCOCC2)ncn1 is higher in Z score: -1.12 for the first, 1.3 for the second.

Compared with CC(=Cc1cn(C(C)(C)C)nn1)c1nc(C)c(C#N)c(=O)[nH]1, CC(C)c1ccc(C#N)c(NCCc2noc(CO)n2)n1 is lower in Z score: -1.14 for the first, -1.92 for the second.

Going from C[C@@H](CNC(=O)c1ccnc(N(C)C)c1)Cn1ccnc1 to C[C@@H](C(=O)NCC(F)(F)F)N(C)Cc1nnc2ccccn12, the Z score falls from 0.52 to -0.39.

Going from CC(C)(NC(=O)c1cnc2cccnn12)[C@H](O)C(F)(F)F to Cn1cc(C2C[S+]([O-])CCN2C(=O)c2ccc(CCC(F)(F)F)cc2)cn1 (stereo unspecified), the Z score falls from 1.79 to 1.11.

First: O=C1c2ccccc2N[C@]2(C(=O)Nc3ccccc32)N1Cc1ccccc1
Second: CCn1cc(S(=O)(=O)N(Cc2ccccc2)c2ccccc2)cn1
The Z score of the first is higher: 2.79 for the first, 1.9 for the second.

Compared with CC1=NO[C@@H](CNc2nc(C)ns2)C1, Cn1cccc1CNc1nnc([C@@H]2CCCO2)o1 is lower in Z score: 1.25 for the first, 0.81 for the second.

Going from COCC[C@@H](COC)NC(=O)c1c[nH]nc1-c1cnn(C)c1 to CN(CCOc1ccccc1Cl)Cc1cn(C)nn1, the Z score rises from -0.42 to -0.07.

Compared with O=C(C[C@@H]1CCN2C[C@@H]1/C=C\COc1ccccc1CN(Cc1ccccc1OC(F)(F)F)CC2=O)N1CC[C@@H](O)C1, COc1ccccc1N1CCN(C(=O)[C@H]2CC(=O)N(C3CC3)C2)CC1 is higher in Z score: -2.27 for the first, -0.05 for the second.

Going from CCC(CC)c1nc(CN2CCCC2=O)no1 to Cc1noc(CCCC(=O)N2CCN(C3CCCC3O)CC2)n1 (stereo unspecified), the Z score rises from -0.86 to 3.

Compared with COc1cc2ccccc2cc1C(=O)Nc1ccc2oc(-c3cc(Br)ccc3Cl)nc2c1, Cc1cc(-c2nc3ccccc3s2)ccc1NS(=O)(=O)c1ccc2c(c1)OCCO2 is lower in Z score: 0.39 for the first, -0.03 for the second.

Going from Cc1noc(C)c1CCc1nc(-c2ccccc2)nn1C1CCN(C)CC1 to CCN1CCN(CCCNc2nc(-c3ccccc3F)no2)CC1, the Z score rises from 0.74 to 2.37.

Going from CCCN(Cc1c(-c2ccccc2)nn(C)c1N(C)C)C(=O)c1cccs1 to CC(=O)N(C(C)=O)c1c(-c2ccccc2)nnn1-c1ccccc1, the Z score falls from 0.84 to -1.

Compared with CCN(CC)CCNC(=O)CCCC(=O)NCCc1ccc(Cl)cc1, Cc1nc(NC(=O)CCNC(=O)C2CC2C)sc1-c1ccccn1 (stereo unspecified) is higher in Z score: -0.42 for the first, 0.46 for the second.

Going from Cn1cc([C@H]2C[C@@H]2C(=O)NS(=O)(=O)C2CC3CCC2CC3)cn1 (stereo partly specified) to O=C(NC1CCCCC1)c1nc[nH]c1C(=O)NCC1CC1, the Z score rises from 0.15 to 1.4.

First: CC(C)(C)C(NCC1CC1c1ccccc1)C(N)=O (stereo unspecified)
Second: CCOCC(=O)NC[C@H]1CCCN1c1ccccc1
The Z score of the first is lower: -1.77 for the first, 1.93 for the second.

Going from C[C@]1(c2nc(C(F)(F)c3ccc(F)cc3)no2)CCNC(=O)C1 to Cc1nc(C(F)(F)F)ccc1S(N)(=O)=O, the Z score falls from 1.14 to 0.59.

Compared with CCOc1cc(CNC(=O)c2sc(Nc3ccccc3CC)nc2C)ccc1OC, CO[C@@H](CNC(=O)Nc1ccccc1C(F)(F)F)c1ccco1 is lower in Z score: -0.28 for the first, -1.56 for the second.

Compared with CC(C)(CCOCc1ccccc1)CNCC(C)(C)S(C)(=O)=O, CS(=O)(=O)N1CCC(C(=O)Nc2cnccc2-c2ccccc2)CC1 is lower in Z score: 2.62 for the first, 2.3 for the second.

Compared with COc1cccc(C(=O)NCC(=O)N2CCn3c(nc(C)c3C)C2)c1, Cc1cc(C)nc(O[C@H]2CCCN(C(=O)c3cccc(C#N)c3)C2)n1 is lower in Z score: 0.66 for the first, -0.32 for the second.

First: Cc1ccc(CN2CC[C@H](c3nnc(-c4ccco4)o3)C2)o1
Second: Cc1nocc1C(=O)NC1CC[C@H]2CN(Cc3ccccc3)C[C@H]2C1 (stereo partly specified)
The Z score of the first is lower: -1.96 for the first, 1.42 for the second.

First: C/C(C(=O)Nc1ccc(C(=O)c2ccccc2)cc1N)=C(/C)c1nc2ccccc2[nH]1
Second: ONc1ccccc1-c1nc(-c2ccc(Cl)cc2)no1
The Z score of the first is lower: -1.25 for the first, 0.25 for the second.

Going from O=S(=O)(c1c[nH]c2ncncc12)N(CC1CCC1)c1ccccc1 to C[C@H](OC(=O)COc1ccccc1)C(=O)Nc1ncnc2[nH]cnc12, the Z score rises from 0.17 to 1.89.

Going from Cc1ccc(C(=O)C2CCN(C(=O)[C@H](C)NS(=O)(=O)c3c(C)noc3C)CC2)c(C)c1 to Cc1ccc(C(=O)N2CC[C@H](C(=O)Nc3cn[nH]c3)C2)c(Cl)c1, the Z score rises from -0.25 to 0.04.

Compared with CCn1ccc2c([C@H]3CC(=O)NCc4nc5ccc(C)cn5c43)cccc21, Cc1ccc(NC(=O)[C@H]2CC(=O)N(c3n[nH]c4cccc(F)c34)C2)cc1C is lower in Z score: 0.21 for the first, 0.02 for the second.

Going from O=C(Nc1cc(F)ccc1F)N1CCN(Cc2nc3cccnc3n2-c2cccc(F)c2)CC1 to COC[C@H]1CN(C(C)=O)CC12CCN(Cc1ccc(Cl)cc1F)CC2, the Z score rises from -0.43 to 1.01.

Compared with C[C@@H](O)[C@@H](CO)NC(=O)c1ccnc(C2CC2)n1, CCc1nnc(CNC(=O)NC[C@H]2CCCC[C@H]2C(F)(F)F)o1 is higher in Z score: -1.63 for the first, 1.05 for the second.

In the case of Cn1cc(C(=O)N2CCOC[C@@H]2Cc2c[nH]c3ccccc23)c(C(C)(C)C)n1, the Z score is reported as 1.
